# Reference: PubChem BioAssay AID504333 (National Center for Advancing Translational Sciences (NCATS), 2011)
# Among all 360,000 compounds or so, about 16,000 (4.4%) were called active. The inconclusive results got no clear call from the source; some entries with a clear call stand among them for comparison. Calls follow the shape of the dose curve; as a rule, active = well fitted inhibition curve with a large enough effect; inconclusive = small, poorly fitted or top-dose-only effect; inactive = no such curve, though single readings can be large or run the other way. Where the call is inconclusive, the potency comes from a doubtful curve fit.
# Biological target: Bromodomain adjacent to zinc finger domain protein 2B (Homo sapiens) (UniProt Q9UIF8)
# Test: qHTS Assay for Inhibitors of BAZ2B; also: nearly all actives have a fitted effect of over 60% in size
# Conditions: AlphaScreen BAZ2B-H3K14Ac peptide displacement; series mostly up to 114 µM
# In short: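 BAZ2B 50 nM plus b-H3(5-23)K14Ac 50 nM, PBS pH 7.4/0.01% Tween-20, 30 min RT; compound added (max 110 uM), 30 min RT; streptavidin donor/Ni-chelate acceptor beads 10 ug/mL final, 20 min dark; AlphaScreen read.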
# Potency is read from the fitted curve at half-maximal effect; tags tell the direction and shape of the fitted curve.
# UniProt Q9UIF8, sequence (Q9UIF8 whole entry, looked up, the tested form may be a part): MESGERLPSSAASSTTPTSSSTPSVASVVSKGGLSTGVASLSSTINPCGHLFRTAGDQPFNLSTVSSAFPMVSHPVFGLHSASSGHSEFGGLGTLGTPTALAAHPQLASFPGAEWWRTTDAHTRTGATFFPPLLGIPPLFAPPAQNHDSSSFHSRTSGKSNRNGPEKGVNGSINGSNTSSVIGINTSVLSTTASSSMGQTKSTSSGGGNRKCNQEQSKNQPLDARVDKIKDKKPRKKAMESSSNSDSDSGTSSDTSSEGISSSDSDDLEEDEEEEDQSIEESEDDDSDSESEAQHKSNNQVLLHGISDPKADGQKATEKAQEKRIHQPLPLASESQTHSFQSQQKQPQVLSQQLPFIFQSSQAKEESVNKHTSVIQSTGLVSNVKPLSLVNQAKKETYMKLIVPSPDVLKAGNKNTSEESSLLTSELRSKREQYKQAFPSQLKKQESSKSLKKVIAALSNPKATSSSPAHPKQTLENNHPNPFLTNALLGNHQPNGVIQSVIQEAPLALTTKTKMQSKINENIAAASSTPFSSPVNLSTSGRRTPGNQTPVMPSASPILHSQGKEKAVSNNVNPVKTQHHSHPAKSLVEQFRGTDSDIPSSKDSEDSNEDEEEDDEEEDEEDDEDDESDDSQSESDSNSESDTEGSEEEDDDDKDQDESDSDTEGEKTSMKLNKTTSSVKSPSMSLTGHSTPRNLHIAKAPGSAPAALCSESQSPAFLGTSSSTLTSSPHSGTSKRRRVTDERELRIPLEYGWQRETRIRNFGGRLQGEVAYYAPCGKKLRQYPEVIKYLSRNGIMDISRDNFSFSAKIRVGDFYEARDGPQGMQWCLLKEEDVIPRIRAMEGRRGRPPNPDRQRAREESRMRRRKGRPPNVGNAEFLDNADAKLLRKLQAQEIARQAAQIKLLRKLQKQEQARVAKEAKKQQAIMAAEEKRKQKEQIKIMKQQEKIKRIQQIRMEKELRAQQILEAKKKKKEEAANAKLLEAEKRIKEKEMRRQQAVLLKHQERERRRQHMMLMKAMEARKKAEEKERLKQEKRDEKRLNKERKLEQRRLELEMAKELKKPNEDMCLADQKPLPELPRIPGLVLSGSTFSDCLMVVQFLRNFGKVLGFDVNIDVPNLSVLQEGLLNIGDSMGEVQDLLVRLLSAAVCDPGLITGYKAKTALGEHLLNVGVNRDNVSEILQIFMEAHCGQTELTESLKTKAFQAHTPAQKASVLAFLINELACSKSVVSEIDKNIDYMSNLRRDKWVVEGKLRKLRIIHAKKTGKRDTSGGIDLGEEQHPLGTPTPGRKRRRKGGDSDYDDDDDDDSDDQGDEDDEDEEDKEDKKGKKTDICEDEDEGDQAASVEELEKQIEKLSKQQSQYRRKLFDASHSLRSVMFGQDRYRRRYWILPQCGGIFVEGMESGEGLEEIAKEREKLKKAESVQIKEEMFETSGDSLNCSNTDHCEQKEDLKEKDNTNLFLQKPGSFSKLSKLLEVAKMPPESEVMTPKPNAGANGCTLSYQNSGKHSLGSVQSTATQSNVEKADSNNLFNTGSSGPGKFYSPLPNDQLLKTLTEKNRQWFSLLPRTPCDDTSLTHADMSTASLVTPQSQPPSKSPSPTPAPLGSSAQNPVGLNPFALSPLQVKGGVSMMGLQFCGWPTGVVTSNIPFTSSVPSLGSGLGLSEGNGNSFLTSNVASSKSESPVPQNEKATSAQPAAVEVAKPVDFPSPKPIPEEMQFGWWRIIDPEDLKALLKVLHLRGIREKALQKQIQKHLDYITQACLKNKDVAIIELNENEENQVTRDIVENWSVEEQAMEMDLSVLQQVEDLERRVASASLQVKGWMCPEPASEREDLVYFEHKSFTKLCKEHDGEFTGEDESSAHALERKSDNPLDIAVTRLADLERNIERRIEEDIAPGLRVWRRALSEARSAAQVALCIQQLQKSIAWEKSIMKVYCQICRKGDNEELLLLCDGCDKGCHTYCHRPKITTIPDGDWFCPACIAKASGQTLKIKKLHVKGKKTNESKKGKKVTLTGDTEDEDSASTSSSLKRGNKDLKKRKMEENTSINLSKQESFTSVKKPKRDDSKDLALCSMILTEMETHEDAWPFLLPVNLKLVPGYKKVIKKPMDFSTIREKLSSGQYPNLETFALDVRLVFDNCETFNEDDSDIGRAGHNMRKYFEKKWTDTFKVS
row,Compound,Potency
1,CCOC(=O)c1sc2ccccc2c1S(=O)(=O)N1CCN(c2cccc(C)c2)C(C)C1 (configuration not stated),"inconclusive: 50.1 µM [inhibitor, partial curve]"
2,COc1ccc2c(c1)CC(C(=O)NCCCN1CCN(c3cccc(Cl)c3)CC1)CO2 (configuration not stated),"inconclusive: 31.6 µM [inhibitor, partial curve]"
3,Cc1cccc(NC(=O)CN2C(=O)N/C(=C\c3ccccc3OCc3ccc(C(=O)O)cc3)C2=O)c1,active: 70.8 µM
4,COc1ccc2ccccc2c1CNCc1ccccn1,active: 79.4 µM
5,CC(=O)Nc1ccc(NC(=O)C2CC(=O)Nc3ncnn32)cc1 (configuration not stated),inactive
6,CCOc1ccc2oc(C(=O)OCC(=O)NC(=O)NC)c(C)c2c1,inactive
7,CC(=O)NCCn1c(SCc2ccccc2C)nc2ccccc2c1=O,"inconclusive: 100 µM [inhibitor, single point]"
8,Cc1ccc(CNc2nc(-c3ccco3)nn2S(=O)(=O)c2ccc3ccccc3c2)cc1,"inconclusive: 56.2 µM [inhibitor, partial curve, poor fit]"
9,O=C(COC(=O)c1ccc(S(=O)(=O)NCc2ccco2)cc1)c1ccccc1,"inconclusive: 50.1 µM [inhibitor, partial curve]"
10,Cc1nc(CN2CCN(S(=O)(=O)c3c(Cl)cc(Br)cc3Cl)CC2)cs1,active: 79.4 µM
11,Cc1ccc(CC(=O)NCc2ccc(Cl)cc2)cc1,"inconclusive: 100 µM [inhibitor, single point]"
12,O=C(CCCn1c(=O)c2cccn2c2cccnc21)NCc1ccccc1Br,inactive
13,O=C(CC1C(=O)N(c2ccccc2)C(=O)N1CCc1cccs1)Nc1ccc(F)cc1 (configuration not stated),inactive
14,Cc1c(C)n(Cc2ccc(F)cc2)c2ccc(C(=O)NCc3ccco3)cc12,inactive
15,Cc1cn(C)c(CC(=O)NCc2ccccc2)c1C(=O)O,inactive
16,CCN1CCN(S(=O)(=O)c2c(C)cc(C)cc2C)CC1,"inconclusive: 89.1 µM [inhibitor, single point]"
17,CCOc1ccc(C2c3c(oc4ccc(C)cc4c3=O)C(=O)N2CCCN2CCOCC2)cc1 (configuration not stated),inactive
18,CCOc1ccc(Nc2c(S(=O)(=O)c3ccc(Cl)cc3)cnc3ccc(OCC)cc23)cc1,inactive
19,O=C(O)c1ccc(N2C(=O)CC(N3CCN(c4ccc(Cl)cc4)CC3)C2=O)cc1 (configuration not stated),"inconclusive: 89.1 µM [inhibitor, single point]"
20,Cn1c(=O)c2cn(-c3ccccc3)cc2n(C)c1=O,inactive
21,O=C(CCCCCNC(=O)c1ccccc1Br)N=Nc1c(O)[nH]c2ccccc12,"inconclusive: 89.1 µM [inhibitor, single point]"
22,Cc1ccc(C(NC(=O)C(C)C)c2cc([N+](=O)[O-])c3cccnc3c2O)cc1 (configuration not stated),active: 7.94 µM
23,Cc1ccccc1CNC(=O)c1oc2c(c1C)-c1[nH]ncc1CC2,inactive
24,Cc1ccccc1Nc1nn2c(=O)c3ccc(C(=O)NCCc4ccc(Cl)cc4)cc3nc2s1,"inconclusive: 89.1 µM [inhibitor, single point]"

row,Compound,Potency
1,CCOc1ccc(-n2cnnn2)cc1S(=O)(=O)NC1CC1,"inconclusive: 79.4 µM [inhibitor, partial curve]"
2,Cc1[nH]n(-c2ccccc2)c(=O)c1N=Nc1ccc2c(c1)OCCO2,active: 6.31 µM
3,CCOC(=O)c1cnn(CCOC(=O)c2cccc(F)c2)c1NC(=O)c1cccc(F)c1,"inconclusive: 63.1 µM [inhibitor, partial curve, poor fit]"
4,O=C(COc1ccccc1)N=C1SC2CS(=O)(=O)CC2N1c1ccc(F)cc1 (configuration not stated),inactive
5,Cc1oc2ccc(O)c(CN3CCCC3)c2c1C(=O)Nc1ccc(C(C)C)cc1,"inconclusive: 79.4 µM [inhibitor, single point]"
6,CCCNC(=O)CN1CCC(c2nc3ccccc3[nH]2)CC1,inactive
7,CC(=O)N/N=C/c1cc(C)n(-c2ccc(Br)cc2)c1C,"inconclusive: 50.1 µM [inhibitor, partial curve]"
8,CC(c1ccccc1)n1cc2c(c1-c1ccccc1Br)c(=O)n(C)c(=O)n2C (configuration not stated),"inconclusive: 44.7 µM [inhibitor, partial curve]"
9,COc1ccc(-c2cnc(C)o2)cc1S(=O)(=O)Nc1c(C)cc(C)cc1C,"inconclusive: 79.4 µM [inhibitor, single point]"
10,Cc1cccc(N2C(=O)c3ccc(C(=O)Nc4cccc(C(=O)O)c4)cc3C2=O)c1,"inconclusive: 89.1 µM [inhibitor, single point]"
11,COc1cc(/C=C2\SC(=S)N(NC(=O)c3ccncc3)C2=O)ccc1O,"inconclusive: 50.1 µM [inhibitor, partial curve]"
12,O=C(c1cc(-c2ccncc2)nc2ccc(Br)cc12)N1CCN(c2ccccn2)CC1,"inconclusive: 89.1 µM [inhibitor, single point]"
13,COc1ccc(N2CC(C(=O)N/N=C/c3cc([N+](=O)[O-])ccc3O)CC2=O)cc1 (configuration not stated),active: 35.5 µM
14,COc1ccc2nc(NC(=O)c3ccccc3[N+](=O)[O-])sc2c1,"inconclusive: 89.1 µM [inhibitor, single point]"
15,COc1ccccc1N(Cc1cc(=O)[nH]c2ccccc12)C(=O)c1ccc([N+](=O)[O-])cc1,inactive
16,CCOc1ccc(S(=O)(=O)NCc2ccco2)c2ccccc12,"inconclusive: 89.1 µM [inhibitor, single point]"
17,CCSC1=NC(=O)/C(=C2/C=Cc3ccccc3N2CC)S1,active: 7.08 µM
18,Cc1cc(=O)n(CCO)c(O)c1C#N,"inconclusive: 79.4 µM [inhibitor, single point]"
19,CCOC(=O)COc1ccc(C2NC(C(=O)O)CS2)cc1 (configuration not stated),active: 56.2 µM
20,COc1ccc(CN2C(=O)c3ccccc3C2C(=O)NC2CCCC2)c(OC)c1 (configuration not stated),inactive
21,Oc1ccc(Nc2nc(NCC3CCCO3)c3ccccc3n2)cc1 (configuration not stated),"inconclusive: 31.6 µM [inhibitor, partial curve]"
22,CCCOc1ccc(/C=N/NC(=S)Nc2ccccc2[N+](=O)[O-])c(O)c1,"inconclusive: 2.51 µM [inhibitor, full curve]"
23,CC(=O)NS(=O)(=O)c1ccc2c(c1)C(=O)c1cc(S(=O)(=O)NC(C)=O)ccc1-2,inactive
24,CC(C)COC(=O)COc1cc(Cl)c(Cl)cc1Cl,inactive

row,Compound,Potency
1,Cc1cccc(NC(=O)CNC(=O)CCc2nc3sc4c(c3c(=O)[nH]2)CCCC4)c1C,active: 39.8 µM
2,COCC(C)Nc1nc(C)c(C(C)=O)s1 (configuration not stated),"inconclusive: 89.1 µM [inhibitor, single point]"
3,COc1ccc(Cl)cc1NC(=O)c1ccc2c(c1)CCN2S(C)(=O)=O,inactive
4,CCC(CC)COC(=O)C1=C(C)NC(=O)NC1c1ccc([N+](=O)[O-])cc1 (configuration not stated),"inconclusive: 79.4 µM [inhibitor, single point]"
5,COc1cc(S(=O)(=O)N2CCCCCC2)ccc1-n1cnnn1,"inconclusive: 89.1 µM [inhibitor, single point]"
6,COc1ccccc1CCNC(=O)C(=O)Nc1cc2c3c(c1)C(C)C(=O)N3CCC2 (configuration not stated),"inconclusive: 79.4 µM [inhibitor, single point]"
7,COc1cccc(Nc2sc(C(=O)c3ccc(Cl)cc3)c(N)c2C(=O)NCc2ccc(C)cc2)c1,"inconclusive: 17.8 µM [inhibitor, full curve, poor fit]"
8,CCCCOC(=O)NC1CCS(=O)(=O)C1 (configuration not stated),"inconclusive: 7.08 µM [inhibitor, full curve]"
9,Cc1c(Cc2ccccc2)c(=O)oc2cc(OCC(=O)NCc3ccccn3)ccc12,"inconclusive: 70.8 µM [inhibitor, single point]"
10,COC(=O)/C=C1\C(=O)N(c2nc3ccc(OC)cc3s2)C(=S)N1c1ccc(F)cc1,inactive
11,O=C(Nc1sccc1C(=O)NCc1ccco1)c1cccnc1,"inconclusive: 89.1 µM [inhibitor, single point]"
12,COc1ccc(CNC(=O)c2cc(=O)[nH]c3ccc(S(=O)(=O)N4CCCC4)cc23)c(OC)c1,inactive
13,CC(OC(=O)c1cccc(N2C(=O)c3ccccc3C2=O)c1)C(=O)Nc1ccc(N(C)C)cc1 (configuration not stated),"inconclusive: 89.1 µM [inhibitor, single point]"
14,O=C(N/N=C/c1ccoc1)c1ccccc1F,"inconclusive: 56.2 µM [inhibitor, partial curve, poor fit]"
15,Cc1ccc(-c2cn(CCN)c(-c3ccncc3)n2)cc1,"inconclusive: 89.1 µM [inhibitor, single point]"
16,Cc1ccc(-c2cc(-c3ccco3)c(C#N)c(=O)[nH]2)cc1,active: 50.1 µM
17,COc1ccccc1N1CC(C)(C)C(=O)N(C(=O)c2c(F)cccc2Cl)C1=S,"inconclusive: 79.4 µM [inhibitor, partial curve]"
18,COc1ccc(OCc2cc(C(=O)O)c(C)o2)cc1,active: 79.4 µM
19,Cc1c(NC(=O)C(C)OC(=O)c2c3c(nc4ccccc24)CCC3)c(=O)n(-c2ccccc2)n1C (configuration not stated),active: 50.1 µM
20,Cn1cccc1/C=N/NC(=O)c1ccc(OC(F)(F)C(F)F)cc1,"inconclusive: 25.1 µM [inhibitor, full curve, poor fit]"
21,CCOC(=O)C1=NN(c2ccc(Cl)cc2)C(c2ccccc2)CC1=O (configuration not stated),"inconclusive: 44.7 µM [inhibitor, partial curve]"
22,OC(c1ccccc1)c1nccc2ccccc12 (configuration not stated),"inconclusive: 89.1 µM [inhibitor, single point]"
23,O=C(NCc1ccccc1Cl)c1ccc2c(c1)N(Cc1ccccc1)C(=O)CS2,inactive
24,COCCCNC(=O)c1ccccc1Oc1ccccc1,inactive
